The list shows a part of the results. Sequences were assembled here from the parent chain. Inactive controls read about 0.05.
B1: TEV protease; numbered along this chain (parent)
chain: MGESLFKGPRDYNPISSSICHLTNESDGHTTSLYGIGFGPFIITNKHLFRRNNGTLVVQSLHGVFKVKDTTTLQQHLVDGRDMIIIRMPKDFPPFPQKLKFREPQREERICLVTTNFQTKSMSSMVSDTSCTFPSGDGIFWKHWIQTKDGQCGSPLVSTRDGFIVGIHSASNFTNTNNYFTSVPKNFMELLTNQEAQQWVSGWRLNADSVLWGGHKVFMVKPEEPFQPVKEATQL

Variants of: B1
Test: raw area under fraction-flipped curve 0-4 h after induction (AUC4h, not background-subtracted), DNA-recorder readout of cleavage of the substrate (dimensionless); higher = more cleavage of the substrate by the protease variant
Settings: temperature: 34 °C; time window: 0-4 h after rhamnose induction
Experimental: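 In vivo DNA recorder in E. coli TOP10(DE3) ΔrhaA at 34 °C. Each TEVp single-site mutant (parent TEVp 0) is paired with a single-site variant of the 7-mer TEVs (canonical ENLYFQ|S). The substrate sits between flexible linkers in a Bxb1-sfGFP-TEVs-SsrA fusion, so cleavage stabilises Bxb1 and speeds flipping of a recombination array, read by NGS. The value is the raw area under the fraction-flipped curve over 0-4 h after rhamnose induction (AUC4h), with ≥20 reads per time point. It is not background-subtracted; inactive controls average about 0.047.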
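Also: Bxb1 expression induced with 0.2% (w/v) L-rhamnose at OD600 near 0.5, cultures sampled hourly, flipped fraction per protease–substrate barcode pair counted by paired-end Illumina sequencing.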

| Variant | area with substrate ENLYFQA | area with substrate ENLYFQC | area with substrate ENLYFQG | area with substrate ENLYFQH | area with substrate ENLYFQI | area with substrate ENLYFQL | area with substrate ENLYFQN | area with substrate ENLYFQS | area with substrate ENLYFQT | area with substrate ENLYFQV | area with substrate ENLYFQW | area with substrate ENLYFQY | area with substrate ENLYFQF | area with substrate ENLYFQK | area with substrate ENLYFQM | area with substrate ENLYFQR | area with substrate ENLYFQD | area with substrate ENLYFQP | area with substrate ENLYFQE | area with substrate ENLYFQQ |
| --- | --- | --- | --- | --- | --- | --- | --- | --- | --- | --- | --- | --- | --- | --- | --- | --- | --- | --- | --- | --- |
| MGESLFKGPRDYNPISSSICHLTNESDGHTTSLYGIGFGPFIITNKHLFRRNNGTLVVQSLHGVFKVKDTTTLQQHLVDGRDMIIRRMPKDFPPFPQKLKFREPQREERICLVTTNFQTKSMSSMVSDTSCTFPSGDGIFWKHWIQTKDGQCGSPLVSTRDGFIVGIHSASNFTNTNNYFTSVPKNFMELLTNQEAQQWVSGWRLNADSVLWGGHKVFMVKPEEPFQPVKEATQL [I86R] | 0.0404 | 0.0346 | 0.0244 | 0.0449 | 0.0351 | 0.0443 | 0.0358 | 0.0427 | 0.0318 | 0.0433 | 0.0305 | 0.0248 |  |  |  |  |  |  |  |  |
| MGESLFKGPRDYNPISSSICHLTNESDGHTTSLYGIGFGPFIITNKHLFRRNNGTLVVQSLHGVFKVKDTTTLQQHLVDGRDMIIIRMEKDFPPFPQKLKFREPQREERICLVTTNFQTKSMSSMVSDTSCTFPSGDGIFWKHWIQTKDGQCGSPLVSTRDGFIVGIHSASNFTNTNNYFTSVPKNFMELLTNQEAQQWVSGWRLNADSVLWGGHKVFMVKPEEPFQPVKEATQL [P89E] | 0.0606 | 0.102 | 0.0886 | 0.0717 | 0.064 | 0.0579 | 0.0952 | 0.0925 | 0.05 | 0.058 | 0.0624 | 0.0655 | 0.068 | 0.0535 | 0.09 | 0.0569 |  |  |  |  |
| MGESLFKGPRDYNPISSSICHLTNESDGHTTSLYGIGFGPFIITNKHLFRRNNGTLVVQSLHGVFKVKDTTTLQQHLVDGRDMIIIRMFKDFPPFPQKLKFREPQREERICLVTTNFQTKSMSSMVSDTSCTFPSGDGIFWKHWIQTKDGQCGSPLVSTRDGFIVGIHSASNFTNTNNYFTSVPKNFMELLTNQEAQQWVSGWRLNADSVLWGGHKVFMVKPEEPFQPVKEATQL [P89F] | 0.04 | 0.0731 | 0.0721 | 0.0287 | 0.0611 | 0.0539 | 0.0554 | 0.0685 | 0.0441 |  |  |  |  |  |  |  | 0.0243 |  |  |  |
| MGESLFKGPRDYNPISSSICHLTNESDGHTTSLYGIGFGPFIITNKHLFRRNNGTLVVQSLHGVFKVKDTTTLQQHLVDGRDMIIIRMWKDFPPFPQKLKFREPQREERICLVTTNFQTKSMSSMVSDTSCTFPSGDGIFWKHWIQTKDGQCGSPLVSTRDGFIVGIHSASNFTNTNNYFTSVPKNFMELLTNQEAQQWVSGWRLNADSVLWGGHKVFMVKPEEPFQPVKEATQL [P89W] | 0.0674 | 0.0718 | 0.0669 |  | 0.0429 | 0.0427 |  | 0.0703 | 0.045 |  |  |  | 0.0446 | 0.0602 |  | 0.052 |  |  |  |  |
| MGESLFKGPRDYNPISSSICHLTNESDGHTTSLYGIGFGPFIITNKHLFRRNNGTLVVQSLHGVFKVKDTTTLQQHLVDGRDMIIIRMPFDFPPFPQKLKFREPQREERICLVTTNFQTKSMSSMVSDTSCTFPSGDGIFWKHWIQTKDGQCGSPLVSTRDGFIVGIHSASNFTNTNNYFTSVPKNFMELLTNQEAQQWVSGWRLNADSVLWGGHKVFMVKPEEPFQPVKEATQL [K90F] | 0.0958 | 0.106 |  |  | 0.0482 | 0.0602 | 0.0762 | 0.0983 |  | 0.0543 |  |  |  |  | 0.106 | 0.0807 |  | 0.061 |  |  |
| MGESLFKGPRDYNPISSSICHLTNESDGHTTSLYGIGFGPFIITNKHLFRRNNGTLVVQSLHGVFKVKDTTTLQQHLVDGRDMIIIRMPIDFPPFPQKLKFREPQREERICLVTTNFQTKSMSSMVSDTSCTFPSGDGIFWKHWIQTKDGQCGSPLVSTRDGFIVGIHSASNFTNTNNYFTSVPKNFMELLTNQEAQQWVSGWRLNADSVLWGGHKVFMVKPEEPFQPVKEATQL [K90I] | 0.0943 | 0.13 | 0.157 | 0.0912 | 0.0591 | 0.065 | 0.0786 | 0.104 | 0.0727 |  | 0.0679 | 0.0849 |  | 0.0548 | 0.0932 | 0.0604 | 0.0591 | 0.0663 | 0.066 | 0.0724 |
| MGESLFKGPRDYNPISSSICHLTNESDGHTTSLYGIGFGPFIITNKHLFRRNNGTLVVQSLHGVFKVKDTTTLQQHLVDGRDMIIIRMPKDTPPFPQKLKFREPQREERICLVTTNFQTKSMSSMVSDTSCTFPSGDGIFWKHWIQTKDGQCGSPLVSTRDGFIVGIHSASNFTNTNNYFTSVPKNFMELLTNQEAQQWVSGWRLNADSVLWGGHKVFMVKPEEPFQPVKEATQL [F92T] | 0.108 |  |  | 0.0622 | 0.0581 | 0.0866 | 0.0962 | 0.1 |  |  |  |  | 0.0748 |  | 0.0779 |  |  |  |  |  |
| MGESLFKGPRDYNPISSSICHLTNESDGHTTSLYGIGFGPFIITNKHLFRRNNGTLVVQSLHGVFKVKDTTTLQQHLVDGRDMIIIRMPKDFPDFPQKLKFREPQREERICLVTTNFQTKSMSSMVSDTSCTFPSGDGIFWKHWIQTKDGQCGSPLVSTRDGFIVGIHSASNFTNTNNYFTSVPKNFMELLTNQEAQQWVSGWRLNADSVLWGGHKVFMVKPEEPFQPVKEATQL [P94D] | 0.173 |  |  | 0.108 |  | 0.0446 | 0.0797 | 0.106 | 0.0473 | 0.0697 |  |  |  | 0.0648 |  | 0.0482 |  |  |  | 0.093 |
| MGESLFKGPRDYNPISSSICHLTNESDGHTTSLYGIGFGPFIITNKHLFRRNNGTLVVQSLHGVFKVKDTTTLQQHLVDGRDMIIIRMPKDFPQFPQKLKFREPQREERICLVTTNFQTKSMSSMVSDTSCTFPSGDGIFWKHWIQTKDGQCGSPLVSTRDGFIVGIHSASNFTNTNNYFTSVPKNFMELLTNQEAQQWVSGWRLNADSVLWGGHKVFMVKPEEPFQPVKEATQL [P94Q] | 0.0918 | 0.0997 | 0.101 | 0.0681 |  | 0.0636 | 0.0744 | 0.103 | 0.0674 | 0.0459 |  | 0.0878 | 0.0915 | 0.0728 | 0.0961 | 0.0625 | 0.0529 | 0.0702 |  | 0.0641 |

Reference: the supplement of paper PMC12217912
